The source of these data is the CheMixHub viscosity set.

The structures appear in SMILES notation. ± gives the uncertainty stated by the source. For part of its entries the source gives two or more results. The other results are left out here. An entry can have further records. The values listed for one entry are repeated measurements in other runs, samples, wells, individuals or studies. Marks in square brackets tell the records apart. The letters are not those of the source and start again with each entry.

Consider `Brc1ccccc1`, for which the viscosity reads like this: (303.15 K, 101 kPa) 0.987 ± 0.032 mPa·s [study A] and 0.987 ± 0.021 mPa·s [study B] and 0.992 ± 0.009 mPa·s [study C] and 1.004 ± 0.0094 mPa·s [study D] and 1.016 ± 0.065 mPa·s [study E] and 0.992 ± 0.017 mPa·s [study F]; (308.15 K, 101 kPa) 0.939 ± 0.03 mPa·s [study A] and 0.964 ± 0.012 mPa·s [study B] and 0.938 ± 0.02 mPa·s [study C] and 0.9545 ± 0.021 mPa·s [study D] and 0.938 ± 0.008 mPa·s [study E] and 0.934 ± 0.025 mPa·s [study F] and 0.9463 ± 0.009 mPa·s [study G]; (313.15 K, 101 kPa) 0.89 ± 0.029 mPa·s [study A] and 0.891 ± 0.019 mPa·s [study B] and 0.881 ± 0.015 mPa·s [study C] and 0.8883 ± 0.0087 mPa·s [study D].

For the compound `O`, the viscosity runs as follows: (293.15 K, 101 kPa) 0.91 ± 0.02 mPa·s [study A] and 0.97 ± 0.02 mPa·s [study B] and 0.974 ± 0.009 mPa·s [study C] and 1.2 ± 0.08 mPa·s [study D]; (303.15 K, 101 kPa) 0.8178 ± 0.011 mPa·s [study A] and 0.826 ± 0.0073 mPa·s [study B] and 0.73 ± 0.02 mPa·s [study C] and 0.7959 mPa·s [study D] and 0.78 ± 0.02 mPa·s [study E] and 0.791 ± 0.008 mPa·s [study F] and 0.814 ± 0.007 mPa·s [study G]; (313.15 K, 101 kPa) 0.66 ± 0.02 mPa·s, 0.98 ± 0.07 mPa·s, 0.6482 ± 0.12 mPa·s, 0.699 ± 0.006 mPa·s, 0.66 ± 0.11 mPa·s, 0.6214 ± 0.021 mPa·s, 0.6435 ± 0.0063 mPa·s, 0.662 ± 0.13 mPa·s, 0.6852 ± 0.0093 mPa·s, 0.64 ± 0.02 mPa·s [several studies]; (318.15 K, 100 kPa) 0.614 ± 0.008 mPa·s [study A] and 0.6 ± 0.04 mPa·s [study B] and 0.608 ± 0.049 mPa·s [study C] and 0.606 ± 0.037 mPa·s [study D] and 0.6 ± 0.04 mPa·s [study E]; (318.15 K, 101 kPa) 0.6 ± 0.009 mPa·s [study A] and 0.6 ± 0.1 mPa·s [study B] and 0.5346 ± 0.021 mPa·s [study C] and 0.624 ± 0.0062 mPa·s [study D] and 0.6071 mPa·s [study E] and 0.594 ± 0.006 mPa·s [study F] and 0.6 ± 0.02 mPa·s [study G].

As for `O=C1CCCO1`, the viscosity by setting is: (303.15 K, 101 kPa) 1.589 ± 0.026 mPa·s [study A] and 1.61 ± 0.09 mPa·s [study B] and 1.636 ± 0.014 mPa·s [study C] and 1.545 ± 0.11 mPa·s [study D]; (313.15 K, 101 kPa) 1.377 ± 0.023 mPa·s [study A] and 1.39 ± 0.08 mPa·s [study B] and 1.409 ± 0.013 mPa·s [study C] and 1.338 ± 0.096 mPa·s [study D].

As for `CCCCn1cc[n+](C)c1.O=S(=O)([N-]S(=O)(=O)C(F)(F)F)C(F)(F)F`, the viscosity (298.15 K, 100 kPa) is 51.32 ± 0.42 mPa·s [study A] and 49.6 ± 0.63 mPa·s [study B] and 49.11 ± 2.2 mPa·s [study C] and 50.76 ± 3 mPa·s [study D] and 49.3 ± 1 mPa·s [study E]; the viscosity (308.15 K, 100 kPa) is 34.43 ± 1.8 mPa·s [study A] and 33.25 ± 0.42 mPa·s [study B] and 33.22 ± 1.5 mPa·s [study C] and 34.27 ± 2 mPa·s [study D].

As for `C1COCCO1`, the viscosity (308.15 K, 101 kPa) was 0.999 ± 0.017 mPa·s [study A] and 1.015 ± 0.021 mPa·s [study B] and 0.976 ± 0.013 mPa·s [study C] and 0.9779 ± 0.0095 mPa·s [study D] and 0.9469 ± 0.0076 mPa·s [study E] and 0.9985 ± 0.026 mPa·s [study F]; the viscosity (313.15 K, 101.3 kPa) was 0.9416 ± 0.015 mPa·s, 0.9414 ± 0.015 mPa·s, 0.9415 ± 0.015 mPa·s [study A] and 0.9425 ± 0.024 mPa·s [study B].

A word on the viscosity: it is the resistance of a fluid to flow. Read a high viscosity as sluggish flow.
